Target: T1, human topoisomerase II (Homo sapiens, UniProt P11388)
T1 construct: purchased Topogen Inc., Port Orange, USA TG1001
Assay: Inhibition of topoisomerases activity in vitro, Topogen protocol TG1001 (Table 7)
Assay type: biochemical

T1 sequence (P11388 whole entry): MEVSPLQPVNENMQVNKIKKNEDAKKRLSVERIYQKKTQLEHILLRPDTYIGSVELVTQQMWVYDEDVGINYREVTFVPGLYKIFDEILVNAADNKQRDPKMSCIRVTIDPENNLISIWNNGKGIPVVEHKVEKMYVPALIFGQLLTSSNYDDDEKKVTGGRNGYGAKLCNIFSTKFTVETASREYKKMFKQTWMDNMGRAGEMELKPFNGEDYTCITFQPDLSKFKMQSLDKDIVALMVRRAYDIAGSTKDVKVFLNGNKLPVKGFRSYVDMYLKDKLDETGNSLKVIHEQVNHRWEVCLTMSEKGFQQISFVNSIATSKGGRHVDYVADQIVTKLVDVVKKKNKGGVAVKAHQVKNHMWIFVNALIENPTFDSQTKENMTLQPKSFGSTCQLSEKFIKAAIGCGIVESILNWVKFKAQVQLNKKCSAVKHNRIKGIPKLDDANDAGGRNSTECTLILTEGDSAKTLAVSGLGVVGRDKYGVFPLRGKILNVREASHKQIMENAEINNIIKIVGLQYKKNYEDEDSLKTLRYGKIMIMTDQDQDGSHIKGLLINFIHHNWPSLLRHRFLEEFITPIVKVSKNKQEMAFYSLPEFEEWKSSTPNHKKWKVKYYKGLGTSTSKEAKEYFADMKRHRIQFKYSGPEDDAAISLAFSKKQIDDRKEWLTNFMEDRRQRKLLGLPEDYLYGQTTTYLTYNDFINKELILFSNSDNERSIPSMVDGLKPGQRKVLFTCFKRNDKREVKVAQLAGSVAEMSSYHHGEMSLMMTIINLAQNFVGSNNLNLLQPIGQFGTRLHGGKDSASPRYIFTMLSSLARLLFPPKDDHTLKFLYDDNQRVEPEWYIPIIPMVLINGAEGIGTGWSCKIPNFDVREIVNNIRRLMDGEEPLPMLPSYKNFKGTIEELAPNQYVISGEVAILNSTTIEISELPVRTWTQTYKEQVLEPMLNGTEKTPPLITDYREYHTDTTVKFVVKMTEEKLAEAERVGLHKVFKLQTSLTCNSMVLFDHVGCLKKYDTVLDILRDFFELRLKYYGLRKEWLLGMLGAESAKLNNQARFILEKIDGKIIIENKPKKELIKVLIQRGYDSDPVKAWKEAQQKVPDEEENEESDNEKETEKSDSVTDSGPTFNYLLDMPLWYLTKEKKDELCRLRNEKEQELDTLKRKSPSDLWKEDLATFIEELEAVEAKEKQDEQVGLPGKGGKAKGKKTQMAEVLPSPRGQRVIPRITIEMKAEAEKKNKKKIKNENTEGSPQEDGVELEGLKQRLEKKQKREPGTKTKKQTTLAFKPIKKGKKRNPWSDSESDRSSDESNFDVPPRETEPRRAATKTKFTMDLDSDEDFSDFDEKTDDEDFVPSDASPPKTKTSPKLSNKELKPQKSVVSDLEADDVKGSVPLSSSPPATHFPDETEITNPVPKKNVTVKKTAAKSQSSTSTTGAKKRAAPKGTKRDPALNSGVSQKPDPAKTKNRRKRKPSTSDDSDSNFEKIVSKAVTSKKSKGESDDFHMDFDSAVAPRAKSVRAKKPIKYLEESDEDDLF

| Structure (SMILES) | IC50 [µM] |
| --- | --- |
| Cc1c(-c2ccc3[nH]ncc3c2)ccn2c(=O)c(C(=O)[O-])cc(C3CC3)c12.[K+] [Example 23 K salt, potassium 1-cyclopropyl-8-(1H-indazol-5-yl)-9-methyl-4-oxo-4H-quinolizine-3-carboxylate] | > 35 |
| Cc1c(-c2cc(F)c(N)cc2F)ccn2c(=O)c(C(=O)[O-])cc(C3CC3)c12.[K+] [Example 28 K salt, potassium 8-(4-amino-2,5-difluoro-phenyl)-1-cyclopropyl-9-methyl-4-oxo-4H-quinolizine-3-carboxylate] | 68 |

From patent US8962842B2, “2-pyridone antimicrobial compositions” (priority 2010, dated 2015)
